The source of these data is the supplement of paper PMC11417369.

This is one part of the list.

The subject of this assay is PF3D7_0420300 AP2 domain 1 (GST-tagged). In words: gcPBM binding intensity (ln(normalized median fluorescence intensity)); higher = stronger DNA binding. In a few lines:
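Using an Agilent 4 × 180k array, primer-extended double-stranded 36-bp intergenic genomic probes and negative controls were exposed for 1 h to GST-fused P. falciparum DNA-binding domains expressed in E. coli. Binding was carried out in 1× PBS with 1% milk, 0.2 mg/ml BSA, 0.5% salmon testes DNA and 0.03% Triton X-100, and protein was detected with Alexa488 anti-GST antibody and a 488 nm scan. Binding intensity is the highest Masliner-normalised natural-log median intensity across replicate spots of either probe orientation.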
As for TTTCAAATGGAATGTGTGCACATAAATGTAAATAAA, the “gcPBM binding intensity (ln)” value worked out at 9.49.
For the sequence “GATCAAATAGAAAATACATGCAATGTGTGAAATAAC [TGCATGCA_site835]”, the “gcPBM binding intensity (ln)” value was determined as 9.74.
For the sequence “AAAAAAAAAATTTACTGTACACATTTGGGATACTCA [XGTACX_site5191]”, the “gcPBM binding intensity (ln)” value stood at 8.98.
Consider “CTTATTTAATGTATCACACACGAGAATAAAAAATAA [CACACA_site3020]”, for which the “gcPBM binding intensity (ln)” value worked out at 9.43.
In the case of “TATAAGTTGATATATACACACATATATAAATATGTA [CACACA_site7526]”, the “gcPBM binding intensity (ln)” value amounted to 9.31.
Then “TATTTATAAAAATATACACACATACAAATATGCATA [CACACA_site4555]”, with 9.44; and “ATGGTTTTCAGAAAAACATGCATACAATAATAAAAA [TGCATGCA_site815]”, with 9; and “AATTAATATATAAATAATAAAAAAAAATATATAAAC [XGTACX_negctrl_site280]”, with 9.5.
Then “GAACGAAATAAGTGTGTGCACATGTAACCACAAATC [GTGCAC_site9829]”, with 10.
In the case of “CAATATTTTCATAGATGTACTTTGGACTTATTATAT [XGTACX_site4849]” it was 9.05.
Consider “TAAATAAAAGATACGAGTACGTATGATGTTAACCTC [XGTACX_site8840]”, for which the “gcPBM binding intensity (ln)” value worked out at 9.42.
In the case of “GTATATAGTATGTAGAGTACTAATTTCCATATGTTC [XGTACX_site7816]” it was 9.25.
For “ATTTATATATAGGTGTGTCCACAAATAGTATGTAAA [XGTACX_site2916]”, the “gcPBM binding intensity (ln)” value stood at 9.36.
Then “ATTTGTATATACATATGTACACATGTAGGCTCATAA [XGTACX_site1709]”, with 9.19.
In the case of “TTTCGTAAACTTTATGCACACACATATACATATTTC [CACACA_site8146]” it was 9.8; in that of TTTGAATACTGAATGGTGCAAATTGTTCTCCCCATG, 9.04.
With “AGTATAACTTTTGCGCGTACACACATTTATCCTCTT [XGTACX_site429]”, the “gcPBM binding intensity (ln)” value was found to be 9.9.
On to “TATATTAAAATAATCACACACATCAATTAATGGTAA [CACACA_site1234]”, for which the “gcPBM binding intensity (ln)” value was 9.44.
Then “TATAATAATATTTACACACGCATATGTTATATATAT [CACACA_site1477]”, with 9.52; and “TGTATATGGTTTGTGCAAAAATTTATTAATGTGTAA [TGCATGCA_negctrl_site374]”, with 9.26; and “TACAAATGCGTATGTCAATATATGGAGAAATAAATA [TGCATGCA_negctrl_site290]”, with 9.16.
Consider “GTTATAATTGAACTAGTGCATAAATATATTTTAATT [GTGCAC_site9851]”, for which the “gcPBM binding intensity (ln)” value was found to be 9.17.
As for “AATTCTGGCAAAATAACACACACATATATTTTATAT [CACACA_site9064]”, the “gcPBM binding intensity (ln)” value was determined as 9.71.
Regarding “TATCTTTTTTTTAATACACACAAATATATGAAAGTA [CACACA_site4161]”, the “gcPBM binding intensity (ln)” value was 9.29.
On to “ATATAAACACTGAATGCATGCACATATATATATATA [TGCATGCA_site940]”, for which the “gcPBM binding intensity (ln)” value came out at 9.74.
“ATAAAGGAATTTTATACACACAACATATATATATAT [CACACA_site2861]”: the “gcPBM binding intensity (ln)” value amounted to 9.57.
Then “TTTTTTTTTACTAACTGTACTAAAGAAAAAAAAGGG [XGTACX_site3519]”, with 9.04; and “ATGTGTATATGTGTGGGTACTTAATTTTTTTCTTTA [XGTACX_site5351]”, with 9.53.
On to “CGTATTATTATATAAACACACAAGGGGGCATGTATA [CACACA_site745]”, for which the “gcPBM binding intensity (ln)” value came to 9.96.
With “AAAAAAAAAAAAAAAAGTACATATAATAAATAATGA [XGTACX_site7931]”, the “gcPBM binding intensity (ln)” value was 9.27.
On to “TATATCTTAATATTTACACACATGCGCACCCATAAA [CACACA_site5349]”, for which the “gcPBM binding intensity (ln)” value worked out at 9.64.
Consider “AATCTTTGTAATAAAAGTACATTAATTTTATTAATA [XGTACX_site8325]”, for which the “gcPBM binding intensity (ln)” value was 8.93.
Turning to “ACACATACAACGTGGTGTACAAATAATTATAATCAA [XGTACX_site2287]”, the “gcPBM binding intensity (ln)” value stood at 9.24.
On to “TAAGTATATATATTTACACACATTTGTTTTTTTTTA [CACACA_site3784]”, for which the “gcPBM binding intensity (ln)” value turned out to be 9.59.
In the case of “TTTTAAATACTTTATTGTACATTATATATATATATA [XGTACX_site7021]” it was 9.25; in that of “TGAAAAATATAAGGTTGTACTTACATCGGGAATAAT [XGTACX_site4701]”, 9.45.
Then “AATTATGTGTGTCAATGTACACGATTTACATAATAT [XGTACX_site5150]”, with 9.49; and “AATATATGGTTTCTTGATATTAAATTCAATTTAATG [CACACA_negctrl_site69]”, with 9.19; and “ATCCGTGGGTGAAATACACACATGATAATGTGAATG [CACACA_site4662]”, with 9.34.
For “ATAAATGAACAAGTGGCACACACACCGTATAACTAA [CACACA_site9047]”, the “gcPBM binding intensity (ln)” value stood at 9.82.
Turning to “TATTTTTAATTTTTTAATGGTTTAATATTTTTATAT [CACACA_negctrl_site1186]”, the “gcPBM binding intensity (ln)” value came out at 9.19.
For the sequence TGGTATGCAATATTGGTGCGTATATATTTTAAAGGG, the “gcPBM binding intensity (ln)” value amounted to 9.2.
On to “TATTCTAAGATAAGTGGTACTTATATATAATATATA [XGTACX_site8316]”, for which the “gcPBM binding intensity (ln)” value is 9.16.
Then “TCTTTAGCTTCTTCTTTTTTTTTTTTTTTTTTTTTT [XGTACX_negctrl_site518]”, with 9.22.
“ATATATATATATATATGTACATAAACATATATATAT [XGTACX_site1064]”: the “gcPBM binding intensity (ln)” value is 9.12.
In the case of “CATATGTTATATGTAGTGCATTACTATAGGATTTAT [GTGCAC_site9860]”, the “gcPBM binding intensity (ln)” value is 9.23.
On to “TATTTTGCAAAATGTGCATGTTGTGTATTATGTGAC [TGCATGCA_site59]”, for which the “gcPBM binding intensity (ln)” value stood at 9.54.
Then “ATTATAATATATATATGTACATATATATATAATACT [XGTACX_site5092]”, with 9.17; and “GTATAATTGGAAATTACACACCTTAGAATGTAACAT [CACACA_site4059]”, with 9.31.
Consider “ATATATAATATTGGTGGTACAAGGGTATTTTATATT [XGTACX_site8215]”, for which the “gcPBM binding intensity (ln)” value turned out to be 9.41.
Then “TATAATATACTATGTGGTACATATATATATTTATAG [XGTACX_site4556]”, with 9.13.
In the case of “TCATTTATTTTTCTTTGTACACAAAAGTTTTTATGT [XGTACX_site690]” it was 9.41; in that of “ATATATATTTTATATTGTACTTATTATTTTTAGGGC [XGTACX_site723]”, 9.03; in that of “AGGATATATATATTCACACACACATGGAAATATATA [CACACA_site383]”, 9.86.
In the case of “TATGAATATCTATACACACACATATAAATACACGCT [CACACA_site6853]” it was 9.92; in that of “AAAAAACAAATAAGTAAACACACATATATAATATAT [CACACA_site8830]”, 9.85.
As to “CTAATTGTTATTTTGTGTACTTATCATTCGAAATAT [XGTACX_site7963]”, the “gcPBM binding intensity (ln)” value was 9.31.
In the case of “TAGATGTAAGTACATACACACATATATAAATAAATA [CACACA_site8528]” it was 9.49; in that of “ATATATATTTTAATTACACACAAAAAAAAAAAAAAA [CACACA_site4778]”, 9.11.
Then “AAAAAAAAAAAAAATACACACATATTTTATAGGGGA [CACACA_site3261]”, with 9.49; and “TATTTTTTGAAAAGTTCACACATCCAACTCGAGTTG [CACACA_site4412]”, with 9.06; and “AAAATAATGAAATGAAAAAAAAAAATTTAGATTCTA [CACACA_negctrl_site1385]”, with 9.07.
As for “TTATATATTTTTAGGTGTACTTTTTTTTTTTTTTTT [XGTACX_site8164]”, the “gcPBM binding intensity (ln)” value came to 9.33.
As for “GTCATATATTTATGTACACACATATATATATTTATA [CACACA_site4911]”, the “gcPBM binding intensity (ln)” value was found to be 9.55.
As for “TATATATAAAAAAAAAGTACATATAATATAATATTT [XGTACX_site7902]”, the “gcPBM binding intensity (ln)” value turned out to be 9.34.
For “GGTGTTTTTCACAGATGTACACAAATAAAAAAGAAA [XGTACX_site4454]”, the “gcPBM binding intensity (ln)” value amounted to 9.21.
Then “AAATGGACAGTATAAAAATGGAGAATATAAAAATTT [CACACA_negctrl_site889]”, with 9.46; and “AAAAAAAAAAAAAATAAATAAATAAATAAATATATA [GTGCAC_negctrl_site382]”, with 9.04; and “CCTTTTTATTTTTGTAGTACTACATATACATATCTG [XGTACX_site7791]”, with 9.43.
For the sequence “ATATTAAAAAAATATAAACACACAAAAAAAAAATAT [CACACA_site8283]”, the “gcPBM binding intensity (ln)” value stood at 9.94.
Then “TATTCAAAGAAAAACTGTACGTGTAGCAAACGTCAT [XGTACX_site7713]”, with 9.22; and “TTTTTATAACAGCTTAGTACATATAAGAATTCTTGC [XGTACX_site5890]”, with 8.9.
On to “GACCCCATATACATATGTACATACATAATATATATA [XGTACX_site1817]”, for which the “gcPBM binding intensity (ln)” value was determined as 9.57.
Consider “TTTGTTGGTATGGTTACACACATTTAGGAAATAAAA [CACACA_site1411]”, for which the “gcPBM binding intensity (ln)” value worked out at 9.32.
In the case of “TCTTATAAATTAAATATAAAAAAAAAAAAAAAAAAA [XGTACX_negctrl_site77]” it was 8.41; in that of “AGTATTTTGTTTATCACACATATTGGAATTTTCAAT [CACACA_site4686]”, 9.35.
Then “AAAATAATTCAATGTAGTACAATACAAATTGAGAGA [XGTACX_site5991]”, with 9.34; and “AAAATTATACACACACGTACATATAAATAGAAATAT [XGTACX_site1753]”, with 9.96.
Then “TTCAAAAAATATATCTGTACAAATTATGTAGATGAA [XGTACX_site5522]”, with 9.04; and “TTTTTTTTTTTTTTTTTTTTACGATATATTTTAAAA [XGTACX_negctrl_site401]”, with 8.37; and “TAGATCATAACAATTGCACACATTTGCATTTATATT [CACACA_site1562]”, with 9.45.
Consider “TTTTTACTTATTTATTATGTACAATTTCTTCTTTCT [CACACA_negctrl_site264]”, for which the “gcPBM binding intensity (ln)” value amounted to 9.33.
In the case of “AATGTACGCATATACACACACATAAATAGATACGTA [CACACA_site3406]” it was 9.7.
Take “AACGAAAACACTACGTGTACCAAACGTCCTACCAAC [XGTACX_site257]”: the “gcPBM binding intensity (ln)” value came to 9.54.
In the case of “AATAGTTAAATACATACATGCATTCATATAATATAT [TGCATGCA_site433]” it was 9.27; in that of “AAGATAAAAATATGCACACATATATATATATATATA [CACACA_site404]”, 9.22; in that of “TAATTAAGAATATATAGTACATAGTTGAAAAACTTT [XGTACX_site6359]”, 9.1.
“ATATTCTCTTAAATATGTACGTATGTATATATATAT [XGTACX_site5885]”: the “gcPBM binding intensity (ln)” value came out at 9.16.
In the case of “CGCAAAACAATGATACGTACATATATATATATATAT [XGTACX_site5883]”, the “gcPBM binding intensity (ln)” value is 9.21.
